In all, about 16,000 compounds went through this assay and about 120 (0.75%) were called active. Not shown: some 4% with an inconclusive outcome. Calls come from the whole dose curve; as a rule, active = well fitted inhibition curve with a large enough effect; inconclusive = small, poorly fitted or top-dose-only effect; inactive = no such curve, though single readings can be large or run the other way. Some of the results follow.

The assay addresses Rap guanine nucleotide exchange factor 3 (Homo sapiens) (UniProt O95398). The assay is described as follows: Validation qHTS for antagonist of cAMP-regulated guanine nucleotide exchange factor 3 (EPAC1).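 Note: plate controls were DMSO for no effect and ATA control for full effect; nearly all actives have a fitted effect of over 75% in size.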 As to conditions: EPAC1 Rap1B-BODIPY-GDP exchange, fluorescence; series mostly up to 150 µM; activity change, negative = inhibition: at the top concentration. In a few lines: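 Nucleotide exchange followed as fluorescence loss when BODIPY-GDP leaves Rap1B (480 nm excitation, 540 nm emission), read at 5 min intervals over 30 min. Reaction: 100 nM EPAC1, 250 nM RAP1B-BODIPY-GDP, 50 uM GDP; ATA and DMSO define normalization.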
Sequence of UniProt O95398 (O95398 whole entry, looked up): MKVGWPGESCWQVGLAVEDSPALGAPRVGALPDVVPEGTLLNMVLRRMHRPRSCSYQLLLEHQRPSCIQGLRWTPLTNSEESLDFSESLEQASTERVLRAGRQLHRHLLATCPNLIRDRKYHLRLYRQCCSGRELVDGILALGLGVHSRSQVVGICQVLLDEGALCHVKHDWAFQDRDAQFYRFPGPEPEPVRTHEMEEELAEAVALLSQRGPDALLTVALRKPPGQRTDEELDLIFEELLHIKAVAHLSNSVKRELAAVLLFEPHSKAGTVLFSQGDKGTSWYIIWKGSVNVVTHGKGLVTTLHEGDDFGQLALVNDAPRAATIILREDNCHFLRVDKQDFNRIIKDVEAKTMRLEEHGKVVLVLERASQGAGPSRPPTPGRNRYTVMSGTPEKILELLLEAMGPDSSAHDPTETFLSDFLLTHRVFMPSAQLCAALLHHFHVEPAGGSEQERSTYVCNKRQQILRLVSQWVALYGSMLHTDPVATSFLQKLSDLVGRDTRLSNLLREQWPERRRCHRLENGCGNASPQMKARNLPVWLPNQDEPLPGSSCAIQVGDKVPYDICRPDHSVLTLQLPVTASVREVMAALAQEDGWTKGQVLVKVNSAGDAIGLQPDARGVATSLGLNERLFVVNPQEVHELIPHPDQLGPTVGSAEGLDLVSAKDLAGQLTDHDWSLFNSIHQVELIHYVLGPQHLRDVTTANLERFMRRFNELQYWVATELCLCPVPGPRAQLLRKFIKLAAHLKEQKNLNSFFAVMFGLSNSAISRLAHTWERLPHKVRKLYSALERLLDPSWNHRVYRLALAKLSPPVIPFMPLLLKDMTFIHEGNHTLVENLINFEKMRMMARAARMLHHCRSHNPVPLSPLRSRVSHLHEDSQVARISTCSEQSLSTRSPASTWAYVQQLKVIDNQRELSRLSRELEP
Regarding `Cn1cccc1C(=O)N1CCC2(CCN(Cc3ccc(C#N)cc3)CC2)CC1`, the “activity change, negative = inhibition” value was inactive: -1.33%.

For `COCC(=O)N1CCC2(CC1)CN(c1cccc(-c3ccccc3)c1)C2`, the “activity change, negative = inhibition” value is inactive: 27.6%.

For `c1cncc(CNc2ccnc(-c3cccnc3)n2)c1`, the “activity change, negative = inhibition” value was inactive: 19%.

For `COc1ncc2nc(CCc3ccccc3)c(=O)n(C3CC3)c2n1`, the “activity change, negative = inhibition” value was inactive: 6.78%.

Turning to `Cc1ccccc1-c1ccc2ncnc(N(C)Cc3ccco3)c2c1`, the “activity change, negative = inhibition” value was inactive: -6.84%.

With `CC(=O)OCC(=O)[C@@]1(O)CCC2C3CCC4=CC(=O)CC[C@@]4(C)[C@]3(F)C(O)C[C@]21C` (stereo not given in full), the “activity change, negative = inhibition” value was inactive: 9.82%.

Consider `C/C(Nc1ccc2oc(=O)ccc2c1)=C1/C(=O)CC2[C@@H]1C2(C)C` (stereo not given in full), for which the “activity change, negative = inhibition” value is inactive: 15.1%.

Take `COc1cc(=O)n2c(c1C(=O)NC(C)c1ccco1)CCN(Cc1cc3ccccc3o1)CC2` (stereo not given): the “activity change, negative = inhibition” value was inactive: 11.9%.

`O=C1N=C(O)CN1/N=C/c1ccc(-c2ccc([N+](=O)[O-])cc2)o1`: the activity change, negative = inhibition result is “inactive”.

In the case of `Cn1c(=O)c(-c2ccccc2)nc2cnc(N3CCNCC3)nc21`, the “activity change, negative = inhibition” value is inactive: 17.2%.

Consider `COc1cc(=O)n2c(c1C(=O)N(C)Cc1cscn1)CCN(C(=O)c1ccc(C)c(C)c1)CC2`, for which the “activity change, negative = inhibition” value is inactive: 2.54%.

On to `Cc1[nH]c(C)c(Cl)c(=O)c1Cl`, for which the “activity change, negative = inhibition” value was inactive: 9.53%.

On to `CN1CCC2(CC1)CCN(C(=O)c1cc(C(F)(F)F)cc(C(F)(F)F)c1)CC2`, for which the “activity change, negative = inhibition” value is inactive: 0.273%.

In the case of `CNCC(=O)N[C@@H](CCCN=C(N)N)C(=O)N[C@H](C(=O)N[C@@H](Cc1ccc(O)cc1)C(=O)N[C@H](C(=O)N[C@@H](Cc1cnc[nH]1)C(=O)N1CCC[C@H]1C(=O)N[C@@H](C)C(=O)O)C(C)C)C(C)C`, the “activity change, negative = inhibition” value was inactive: 10.4%.

Turning to `CC(C)CN1CC[C@@]2(CCCN(C(=O)c3ccco3)C2)C1`, the “activity change, negative = inhibition” value was inactive: 16.4%.

For the compound `CC1=CCc2c(cc3oc(C)cc(=O)c3c2O)OC1`, the “activity change, negative = inhibition” value is inactive: -13.5%.

Consider `CC1(C)O[C@@H]2C[C@H]3[C@@H]4C[C@H](F)C5=CC(=O)CC[C@]5(C)[C@H]4[C@@H](O)C[C@]3(C)[C@]2(C(=O)CO)O1`, for which the “activity change, negative = inhibition” value was inactive: -7.45% [at 75.8 µM].

As to `CC(=O)c1ccc(-c2cc(F)cc3c2OC(CNC(=O)c2ccc[n+]([O-])c2)C3)s1` (stereo not given), the “activity change, negative = inhibition” value is inactive: 6.16%.

Take `O=C(c1noc2c1CCCC2)N1CCOc2ccc(CN3CCN(c4ccccn4)CC3)cc2C1`: the “activity change, negative = inhibition” value is inactive: 15.3%.

Regarding `CCC1CN(CCNC(=O)c2ccnc(Cl)c2)Cc2cc(OC)ccc2O1` (stereo not given), the “activity change, negative = inhibition” value is inactive: -1.87%.

Regarding `C[C@@H]1CN(Cc2ccc3c(c2)CN(C(=O)CN2CCOc4ccccc4C2)CCO3)C[C@H](C)O1`, the “activity change, negative = inhibition” value was inactive: 7.62%.

In the case of `O[N+]1=CC=CCC1=S.On1ccccc1=S.[Zn]`, the “activity change, negative = inhibition” value is inactive: -7.78%.

Regarding `CC1(C)CC2C1CCC1(C)OC1CCC2(C)O` (stereo not given), the “activity change, negative = inhibition” value was inactive: 4.64%.

As for `Cc1ccc2cc(CNC(C)CO)c(N3CCC(O)CC3)nc2c1` (stereo not given), the “activity change, negative = inhibition” value was inactive: 17.1%.

For `CC(=O)O[C@]1(C)CC[C@]23CC1C(C)(C)C2CC[C@@H]3C` (stereo not given in full), the “activity change, negative = inhibition” value is inactive: 24.4%.

For `CN(C)c1ccc(/C=C/c2ccnc3ccccc23)cc1[N+](=O)[O-]`, the “activity change, negative = inhibition” value was inactive: -3.13%.

`CN(C)c1ncc2nc(-c3cn(C)c4ccccc34)c(=O)n(C[C@H]3CCCO3)c2n1`: the “activity change, negative = inhibition” value was inactive: 17.1%.

Turning to `Cn1cccc1C(=O)N1CCC[C@@]2(CCN(c3ncccn3)C2)C1`, the “activity change, negative = inhibition” value is inactive: 15.2%.

For the compound `CN1CC[C@@]2(CCCN(C(=O)c3cccn3C)C2)C1`, the “activity change, negative = inhibition” value was inactive: 18.4%.

In the case of `OCc1cc([C@@H](O)CNCCCCCCOCCCCc2ccccc2)ccc1O`, the “activity change, negative = inhibition” value is inactive: 3.19%.

Consider `COC(=O)N1CCC2(CCCN(c3cccc(-c4ccccc4)c3)C2)CC1`, for which the “activity change, negative = inhibition” value was inactive: -7.76%.

On to `CC(C)(Oc1ccc(C2CCCc3ccccc32)cc1)C(=O)O` (stereo not given), for which the “activity change, negative = inhibition” value was inactive: 3.43%.

For `COc1cccc(-c2cncnc2NCc2cccnc2)c1`, the “activity change, negative = inhibition” value was inactive: 9.93%.

For the compound `COc1cccc(-c2ccc(O)c(CNC(c3ccccc3)c3ccc(Cl)cc3)c2)n1` (stereo not given), the “activity change, negative = inhibition” value was inactive: 1.86%.

For `COc1cc2nc(N(C)C)c(CNCc3nonc3C)cc2c(OC)c1OC`, the “activity change, negative = inhibition” value is inactive: 4.14%.

As to `FC(F)(F)c1cc(CN2CC3(CCNCC3)C2)cc(C(F)(F)F)c1`, the “activity change, negative = inhibition” value was inactive: -0.358%.

Consider `O=c1c(-c2cccc(F)c2)nc2cncnc2n1Cc1ccc(F)cc1`, for which the “activity change, negative = inhibition” value was inactive: -1.33%.

In the case of `NNC(=O)c1ccncc1`, the activity change, negative = inhibition result was “inactive”.

Turning to `CN(C(=O)CCCOc1ccc2[nH]c(=O)ccc2c1)C1CCCCC1`, the activity change, negative = inhibition entry was “inactive”.

Regarding `Nc1ncnc2c1ncn2[C@@H]1O[C@H](COP(=O)(O)OP(=O)(O)OC[C@H]2OC(O)[C@H](O)[C@@H]2O)[C@@H](O)[C@H]1O` (stereo not given in full), the “activity change, negative = inhibition” value is inactive: 21.2%.

Consider `N#Cc1ccc(CN2CCC3(CC2)CCN(C(=O)c2cccc(F)c2)CC3)cc1`, for which the “activity change, negative = inhibition” value is inactive: 15.2%.

As to `O=C(c1cccc(F)c1)N1CCC2(CCCN(c3ccc(-c4ccccc4)cc3)C2)CC1`, the “activity change, negative = inhibition” value is inactive: 8.17%.

Take `Cc1nc(CC(=O)N2CCC(n3c(C4CCC4)nc4cccnc43)CC2)cs1`: the “activity change, negative = inhibition” value was inactive: 21.8%.

For the compound `O=C(O)c1ccc2nc(-c3ccccc3)c(-c3ccccc3)nc2c1`, the “activity change, negative = inhibition” value was inactive: 26.4%.

For the compound `COc1cccc(CNC(=O)c2c(OC)cc(=O)n3c2CCN(C(=O)c2ccoc2C)CC3)c1`, the “activity change, negative = inhibition” value is inactive: -0.197%.

For the compound `c1ccc(-c2cccc(N3CC4(CCNCC4)C3)c2)cc1`, the “activity change, negative = inhibition” value is inactive: 8.19%.

As for `COc1ccc(-n2c(=O)c(-c3cn(C)c4ccccc34)nc3cnc(OC)nc32)cc1`, the “activity change, negative = inhibition” value was inactive: 6.05%.

For the compound `CN(C)c1ccc(-c2nc(NC3CCNCC3)c3ccccc3n2)cc1`, the “activity change, negative = inhibition” value is inactive: 11.8%.

Regarding `N#CCCn1c(=O)c(-c2ccc(Cl)cc2)nc2cnc(OCc3ccccc3)nc21`, the “activity change, negative = inhibition” value is inactive: 19.3%.

As to `C=C1c2c(Cl)ccc(O)c2C(O)=C2C(=O)[C@]3(O)C(O)=C(C(N)=O)C(=O)[C@@H](N(C)C)[C@@H]3[C@@H](O)[C@H]12`, the “activity change, negative = inhibition” value is inactive: 8.85% [at 75.8 µM].

(Values after PubChem BioAssay AID1645882 (National Center for Advancing Translational Sciences (NCATS), 2021).)
